# In PubChem BioAssay (NCATS):
# This list was built around the results that the source calls inconclusive (neither active nor inactive); the mix of calls is not that of the screen. A potency beside an inconclusive call is a rough fit, not a confirmed value. Activity calls are given as the source filed them. Unless noted, the call rests on the fitted dose curve; in most records, active means well fitted inhibition curve with a large enough effect; inconclusive means small, poorly fitted or top-dose-only effect; inactive means no such curve, though single readings can be large or run the other way.
# Tests used:
# [1] = target: Aldehyde dehydrogenase, mitochondrial (Homo sapiens) (UniProt P05091); assay: qHTS for Inhibitors of the Aldehyde Dehydrogenase Family (ALDH2) Confirmatory screens (AID 2061303; active means well fitted inhibition curve with a large enough effect; inconclusive means small, poorly fitted or top-dose-only effect; inactive means no such curve, though single readings can be large or run the other way; title and protocol of this record describe different tests; further: nearly all actives have a fitted effect of over 45% in size); details: ALDH inhibition qHTS; activity change, negative = inhibition: at 45.4 µM (top of the series)
# [2] = qHTS for Inhibitors of the Aldehyde Dehydrogenase Family (ALDH1A2, ALDH1A3, ALDH2, ALDH3A1) (AID 2061307); details: ALDH inhibition qHTS; activity change, negative = inhibition: at 50.3 µM (top of the series) unless noted; further: nearly all actives have a fitted effect of over 50% in size; on potency: test system not described further here
# [3] = target: Retinaldehyde dehydrogenase 3 (Homo sapiens) (UniProt P47895); assay: qHTS for Inhibitors of the Aldehyde Dehydrogenase Family (ALDH1A3) Confirmatory screens (AID 2061311); details: activity change, negative = inhibition: at 46 µM (top of the series); further: nearly all actives have a fitted effect of over 60% in size
# [4] = target: Retinal dehydrogenase 2 (Homo sapiens) (UniProt O94788); assay: qHTS for Inhibitors of the Aldehyde Dehydrogenase Family (ALDH1A2) Confirmation screens (AID 2061314); details: activity, negative = inhibition: at 45.9 µM (top of the series) unless noted; further: nearly all actives have a fitted effect of over 65% in size
# [5] = target: Aldehyde dehydrogenase 1A1 (Homo sapiens) (UniProt P00352); assay: qHTS for Inhibitors of the Aldehyde Dehydrogenase Family (ALDH1A1) Confirmatory screens (AID 2061316); details: activity change, negative = inhibition: at 47.3 µM (top of the series); further: nearly all actives have a fitted effect of over 65% in size
# On the % scale 0 is the no-effect control and ±100 the full control effect; potency means the concentration at half of the fitted maximal effect; tags describe the fitted curve by direction and shape.
Structure (SMILES),Potency [1],Potency [2],Potency [3],Potency [4],Potency [5],"activity change, negative = inhibition [3]"
FC(F)(F)c1cc(N2CCN(C(=S)Nc3cc(Cl)ccn3)CC2)cc(C(F)(F)F)c1,inactive,inactive,inactive,inactive,active: 22.5 µM,
NC(=O)C1CCN(c2ncc(Br)s2)CC1,"inconclusive: 15.9 µM [inhibitor, partial curve]","inconclusive: 22.5 µM [inhibitor, partial curve]","inconclusive: 12.7 µM [inhibitor, partial curve]","inconclusive: 25.2 µM [inhibitor, partial curve]",active: 4.49 µM,
OCC(O)C(c1c[nH]c2ccccc12)c1c[nH]c2ccccc12 (stereo not given),inactive,"inconclusive: 12.7 µM [inhibitor, partial curve]","inconclusive: 25.2 µM [inhibitor, partial curve]","inconclusive: 28.3 µM [inhibitor, partial curve, poor fit]","inconclusive: 17.9 µM [inhibitor, partial curve]",
CC1=CC(=O)C(=C(C)C)CC2C(C)(O)CCC12O (stereo not given),inactive,"inconclusive: 22.5 µM [inhibitor, single point]","inconclusive: 25.2 µM [inhibitor, partial curve, poor fit]",inactive,inactive,
CC(=O)c1c(O)cc2cccc3c2c1CC(C)(O)O3 (stereo not given),"inconclusive: 7.98 µM [inhibitor, partial curve]","inconclusive: 7.98 µM [inhibitor, partial curve]",active: 12.7 µM,"inconclusive: 6.34 µM [inhibitor, partial curve]","inconclusive: 11.3 µM [inhibitor, partial curve, poor fit]",
COc1ccc(NC(=O)c2ccc(-c3ccc(C(N)=O)cc3C)cc2)cc1N1CCN(C)CC1,inactive,"inconclusive: 20.1 µM [inhibitor, partial curve]",inactive,"inconclusive: 31.8 µM [inhibitor, single point]",inactive,
Cc1cc(-c2nnc3n2CCCC3)c(C)n1-c1ccccc1,"inconclusive: 31.8 µM [inhibitor, partial curve, poor fit]",inactive,"inconclusive: 11.3 µM [inhibitor, partial curve]",inactive,active: 11.3 µM,
O=C1CCCC2=C1C(c1ccccc1)N=C(Nc1nc3ccccc3o1)N2 (stereo not given),"inconclusive: 7.08 µM [inhibitor, full curve, poor fit]","inconclusive: 0.355 µM [inhibitor, full curve, poor fit]","inconclusive: 31.6 µM [inhibitor, partial curve]",inactive,inactive,
Cc1noc(C)c1S(=O)(=O)Nc1cnccc1C(=O)Nc1nc(-c2ccccc2)cs1,"inconclusive: 22.5 µM [inhibitor, partial curve]","inconclusive: 17.9 µM [inhibitor, partial curve, poor fit]",inactive,"inconclusive: 22.5 µM [inhibitor, partial curve]","inconclusive: 20.1 µM [inhibitor, partial curve]",
O=Cc1ccc(N2CCN(S(=O)(=O)c3ccc4c(c3)CC(=O)N4)CC2)cc1,"inconclusive: 17.9 µM [inhibitor, partial curve]","inconclusive: 0.112 µM [inhibitor, full curve, poor fit]",,"inconclusive: 5.65 µM [inhibitor, partial curve]","inconclusive: 14.2 µM [inhibitor, partial curve]",inconclusive: -34% [inhibitor]
CN(Cc1ccco1)c1ncnc2ccc(-c3ccoc3)cc12,"inconclusive: 6.31 µM [inhibitor, full curve, poor fit]",inactive,"inconclusive: 31.8 µM [inhibitor, single point]","inconclusive: 17.9 µM [inhibitor, partial curve]",active: 12.7 µM,
O=C1CCCC2=C1[C@@]1(CCC(c3ccccc3)C1)N=C(Nc1nc3ccccc3o1)N2 (stereo not given in full),"inconclusive: 22.5 µM [inhibitor, partial curve, poor fit]","inconclusive: 35.7 µM [inhibitor, single point]","inconclusive: 14.2 µM [inhibitor, partial curve, poor fit]","inconclusive: 35.7 µM [inhibitor, partial curve, poor fit]","inconclusive: 28.3 µM [inhibitor, single point]",
COc1ccc(C2Nc3ccccc3C(=O)N2Cc2ccccc2Cl)cc1COc1ccc(NC(C)=O)cc1 (stereo not given),"inconclusive: 25.1 µM [inhibitor, partial curve, poor fit]",active: 8.96 µM,"inconclusive: 12.7 µM [inhibitor, partial curve]","inconclusive: 11.3 µM [inhibitor, partial curve]","inconclusive: 15.9 µM [inhibitor, partial curve, poor fit]",
Cc1ccc2nc3sc(C(=O)N4CCOCC4)cc3cc2c1,"inconclusive: 0.0398 µM [inhibitor, full curve, poor fit]","inconclusive: 0.316 µM [inhibitor, full curve, poor fit]",active: 25.2 µM,"inconclusive: 11.3 µM [inhibitor, partial curve]","inconclusive: 12.7 µM [inhibitor, partial curve]",
Cc1nc(NCc2ccc(-c3cccnc3)cc2)c2ccccc2n1,inactive,"inconclusive: 20.1 µM [inhibitor, partial curve, poor fit]","inconclusive: 25.2 µM [inhibitor, partial curve]",inactive,inactive,
CCCCNc1nc(C#N)nc(Nc2ccccc2)n1,active: 2.51 µM,active: 0.501 µM,"inconclusive: 35.5 µM [inhibitor, single point]",inactive,"inconclusive: 6.31 µM [inhibitor, full curve, poor fit]",
COC(=O)/C=C/C12COC(C)(C)C1C(O)C(OC(C)=O)C1(C)C2CCC2(C)C(c3ccoc3)OC(=O)C3OC321 (stereo not given),"inconclusive: 13.8 µM [inhibitor, partial curve, poor fit]","inconclusive: 8.73 µM [inhibitor, partial curve]","inconclusive: 11 µM [inhibitor, partial curve]","inconclusive: 5.51 µM [inhibitor, partial curve]","inconclusive: 11 µM [inhibitor, partial curve]",
Cc1ccc(S(=O)(=O)Nc2ccc(NS(=O)(=O)c3ccc(C)cc3)c3ncccc23)cc1,"inconclusive: 7.12 µM [inhibitor, partial curve]","inconclusive: 12.7 µM [inhibitor, partial curve, poor fit]",active: 15.9 µM,"inconclusive: 0.565 µM [inhibitor, full curve]",inactive,
Cc1ccc(NS(=O)(=O)c2cc3c(cc2N[C@@H](C)CO)NC(=O)CC3)cc1Cl,"inconclusive: 12.7 µM [inhibitor, partial curve]","inconclusive: 12.7 µM [inhibitor, single point]","inconclusive: 14.2 µM [inhibitor, partial curve]",active: 22.5 µM,inactive,
O=C1Nc2ccccc2-c2nc3ccccc3c(=O)n2-c2c(O)cccc21,inactive,inactive,"inconclusive: 12.4 µM [inhibitor, partial curve, poor fit]","inconclusive: 22.1 µM [inhibitor, partial curve]","inconclusive: 8.78 µM [inhibitor, partial curve]",
C=C1CCC2C(C)(C(=O)O)CCCC2(C)C1CCC(C)CC(=O)O (stereo not given),"inconclusive: 1 µM [inhibitor, full curve, poor fit]","inconclusive: 0.199 µM [inhibitor, full curve]","inconclusive: 13.9 µM [inhibitor, partial curve, poor fit]","inconclusive: 13.9 µM [inhibitor, partial curve]","inconclusive: 9.85 µM [inhibitor, partial curve]",
COc1ccc(Cl)cc1C(=O)NCc1nnc2cc(-c3nc(C)no3)ccn12,"inconclusive: 17.8 µM [inhibitor, partial curve, poor fit]",inactive,inactive,inactive,inactive,
C=CC(=O)N1CCN(C(=O)CNc2cc(-c3ccccc3Cl)c(Cl)cc2OC)CC1,inactive,"inconclusive: 25.2 µM [inhibitor, partial curve]",inactive,"inconclusive: 12.7 µM [inhibitor, partial curve]",inactive,
Cc1cccc(NC(=O)N2CC(Oc3ccc(-c4nc(C)no4)cc3)C2)c1,"inconclusive: 17.8 µM [inhibitor, partial curve, poor fit]",active: 3.24 µM,"inconclusive: 12.6 µM [inhibitor, partial curve]",inactive,inactive,
S=C(Nc1cc(Cl)ccn1)N1CCN(c2cccc(Cl)c2Cl)CC1,active: 15.8 µM,active: 3.98 µM,"inconclusive: 11.3 µM [inhibitor, partial curve]",active: 25.2 µM,active: 3.18 µM,
